From publication PMC4336329 (PLoS ONE, 2015) come the findings set out here.

In all, about 310,000 compounds went through this assay and about 14,000 (4.5%) showed an effect of 50% or more. Effects have a minus sign here. Some of the results follow.
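Note: peak tail current of the secondary pulse compared with the same well before compound.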

For the test, the target named is human ether-à-go-go-related gene (hERG) potassium channel (human, UniProt Q12809). As to the kind of experiment: primary screen, population patch clamp on CHO cells stably expressing hERG.
Sequence of human ether-à-go-go-related gene (hERG) potassium channel (Q12809 whole entry, looked up): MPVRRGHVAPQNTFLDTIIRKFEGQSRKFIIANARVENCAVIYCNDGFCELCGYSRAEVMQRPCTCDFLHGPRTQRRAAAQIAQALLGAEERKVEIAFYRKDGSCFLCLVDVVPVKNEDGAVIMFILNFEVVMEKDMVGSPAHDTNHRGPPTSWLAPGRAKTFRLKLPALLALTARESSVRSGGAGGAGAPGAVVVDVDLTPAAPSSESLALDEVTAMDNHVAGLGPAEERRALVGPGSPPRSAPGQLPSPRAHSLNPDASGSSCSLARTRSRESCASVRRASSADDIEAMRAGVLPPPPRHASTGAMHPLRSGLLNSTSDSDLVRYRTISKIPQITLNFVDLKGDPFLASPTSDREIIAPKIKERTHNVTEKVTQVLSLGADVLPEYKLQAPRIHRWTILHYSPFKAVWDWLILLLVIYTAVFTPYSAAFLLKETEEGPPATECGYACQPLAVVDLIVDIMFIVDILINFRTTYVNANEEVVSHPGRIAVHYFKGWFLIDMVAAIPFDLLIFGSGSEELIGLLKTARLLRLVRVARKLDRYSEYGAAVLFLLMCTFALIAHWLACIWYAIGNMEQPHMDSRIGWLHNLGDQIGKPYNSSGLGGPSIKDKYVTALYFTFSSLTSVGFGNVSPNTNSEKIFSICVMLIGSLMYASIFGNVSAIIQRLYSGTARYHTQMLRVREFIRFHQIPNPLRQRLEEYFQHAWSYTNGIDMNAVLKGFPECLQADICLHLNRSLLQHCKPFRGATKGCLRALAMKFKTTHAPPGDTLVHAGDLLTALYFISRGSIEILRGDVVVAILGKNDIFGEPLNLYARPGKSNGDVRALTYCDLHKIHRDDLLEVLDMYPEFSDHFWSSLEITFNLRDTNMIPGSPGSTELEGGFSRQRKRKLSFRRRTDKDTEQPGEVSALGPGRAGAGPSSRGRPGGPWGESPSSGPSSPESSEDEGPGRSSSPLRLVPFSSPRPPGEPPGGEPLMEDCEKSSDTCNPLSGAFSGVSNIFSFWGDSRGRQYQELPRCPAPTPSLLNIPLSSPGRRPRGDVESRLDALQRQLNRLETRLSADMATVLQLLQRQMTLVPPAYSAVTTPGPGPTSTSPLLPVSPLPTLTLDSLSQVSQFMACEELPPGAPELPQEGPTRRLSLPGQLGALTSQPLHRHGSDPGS
Regarding `CC1(C)SC2c3ccccc3C(=O)N2[C@@H]1C(=O)NCc1ccco1` (stereo partly shown), the “hERG current change (%, negative = inhibition) at 10uM” value turned out to be 8.48%.
For `O=C1c2ccccc2C(Nc2ccc3c(c2)OCCO3)N1c1ccccn1` (stereo not shown), the “hERG current change (%, negative = inhibition) at 10uM” value is listed as -6.4%.
Then `Cc1cc(C)c(C(=O)COC(=O)CCNS(=O)(=O)c2c(Cl)cccc2Cl)cc1C`, with 13%; and `CC1(C)S[C@@H]2[C@H](N=CN3CCCCCC3)C(=O)N2[C@H]1C(=O)O`, with 6.15%; and `CCCCC(CC(O)COCCC)c1n[nH]c(=S)n1-c1ccccc1` (stereo not shown), with 6.88%.
Consider `COC(=O)CC1=C(C(=O)OC)C(c2ccc3c(c2Cl)OCO3)C(C#N)=C(N)O1` (stereo not shown), for which the “hERG current change (%, negative = inhibition) at 10uM” value is reported as -24.7%.
Next, `CC1CCCCN1Cc1c(O)ccc2c(=O)c(-c3ccc(Cl)cc3Cl)coc12` (stereo not shown): -60.7%; `Cc1ccccc1CC1(CO)CCCN(Cc2ccn[nH]2)C1` (stereo not shown): 1.25%; `CCOC(=O)c1ccc(-c2cc(C)no2)[nH]1`: 11.3%.
For `Cc1ccc(NC(=O)Cn2c(=O)cnc3ccccc32)cc1S(=O)(=O)N1CCOCC1`, the “hERG current change (%, negative = inhibition) at 10uM” value is recorded as -30.4%.
With `O=C(CCCc1nc(-c2ccccc2Cl)no1)NC1CCCCC1`, the “hERG current change (%, negative = inhibition) at 10uM” value is listed as 1.18%.
`O=C(COc1cccc(Cl)c1)NNC(=S)Nc1ccccc1`: the “hERG current change (%, negative = inhibition) at 10uM” value is on record as 15.8%.
Next, `CCCC(=O)NC1CCCc2c1cnn2-c1ccc(C)c(C)c1` (stereo not shown): -72%; `O=S1(=O)CC(O)C(Nc2ccccc2Cl)C1` (stereo not shown): 3.34%.
Next, `CCn1c(=O)c(=O)n(CC)c2cc(S(=O)(=O)Nc3cccc(OC)c3)ccc21`: 0.962%; `O=C(NCCCn1ccnc1)c1cc2cc([N+](=O)[O-])ccc2oc1=O`: -36.6%; `Cn1c(=O)c2c(nc(N3CCCCCC3)n2Cc2cccc3ccccc23)n(C)c1=O`: 12.9%.
Then `COc1ccc(CCNCc2sccc2C)cc1.Cl`, with -19.9%.
On to `CCC(C)NC(=O)CS(=O)Cc1nc(-c2cccc(C)c2)oc1C` (stereo not shown), for which the “hERG current change (%, negative = inhibition) at 10uM” value is 12.1%.
Next, `CCC(C(=O)Nc1ccc(C)cc1)c1ccccc1` (stereo not shown): 19.1%; `[2H]C([2H])(CCOS(N)(=O)=O)c1ccccc1`: 11.1%.
Next, `c1ccc(C2(Cn3ccc4ccccc43)OCCO2)cc1`: -1.38%; `C=CCNC(=S)N/N=C/c1ccc(C)c([N+](=O)[O-])c1`: 12.8%; `N#CC1(NC(=O)CSc2nc3ccc([N+](=O)[O-])cc3s2)CCCCC1`: -69.5%.
Then `CCCCC1=CC2=C(c3ccco3)C(=O)C(C)(OC(=O)c3ccc(OC)cc3)C(=O)C2=CN1CC(C)C` (stereo not shown), with 6.07%.
Regarding `COCCN(CCOC)C(=O)COC(=O)c1ccc(Cl)c(S(=O)(=O)N(C)c2ccccc2)c1`, the “hERG current change (%, negative = inhibition) at 10uM” value is -48.4%.
Then `Cn1nc(C(=O)NCc2ccccc2)cc1C(=O)NCc1ccccc1`, with 9.03%; and `COc1ccc(NC(=O)CSCC(=O)N2CCN(c3cccc(C(F)(F)F)c3)CC2)cc1`, with -32.9%; and `CCOC(=O)C1CCCN(C(=O)c2ccc([N+](=O)[O-])c(C)c2)C1` (stereo not shown), with -0.429%.
Then `Cc1cc(C(C)(C)C)ccc1OCC(=O)N/N=C\c1c(C)n(C)n(-c2ccccc2)c1=O`, with -66.3%; and `CCCSc1ccc([C@H]2N[C@@](C)(C(=O)OC)[C@H]3C(=O)N(C)C(=O)[C@@H]23)cc1OC.O=C(O)C(F)(F)F`, with 0.0383%; and `Cc1ccc(S(=O)(=O)N2CCN(C(=O)N(C)C)CC2)cc1`, with 28.5%.
Next, `CCCCCn1c(=O)[nH]c2cc(C(=O)N3CCN(Cc4ccc5c(c4)OCO5)CC3)ccc2c1=O`: -4%; `COc1cc(NC(=O)[C@H](C)NC(=O)N2CCn3c2nc2ccccc23)cc(OC)c1`: -41.6%.
For `NC(=O)Cn1c2[n+](c3ccccc31)CC(O)CS2.[Br-]` (stereo not shown), the “hERG current change (%, negative = inhibition) at 10uM” value is listed as 6.9%.
Then `CN(CC(=O)Nc1ccc(F)c(F)c1F)C(=O)c1ccc2c(c1)OCCO2`, with 3.18%.
Consider `COc1cccc(C(=O)NC(=S)Nc2ccc(N(C)C)cc2)c1`, for which the “hERG current change (%, negative = inhibition) at 10uM” value is listed as 9.85%.
With `COc1ccc(CNC(=O)CCn2c(=O)oc3ccccc32)cc1`, the “hERG current change (%, negative = inhibition) at 10uM” value was -5.31%.
Consider `O=[N+]([O-])c1ccc(N2CCN(C(=S)Nc3cccc(F)c3)CC2)cc1`, for which the “hERG current change (%, negative = inhibition) at 10uM” value is listed as -52%.
On to `COc1ccc(-c2cc(C(=O)N3CCOCC3)no2)cc1OC`, for which the “hERG current change (%, negative = inhibition) at 10uM” value is recorded as -6.25%.
In the case of `CC(C)CC1NC2(C(=O)N(C)c3ccccc32)C2C(=O)N(C(C)C)C(=O)C12` (stereo not shown), the “hERG current change (%, negative = inhibition) at 10uM” value is reported as -5.28%.
Regarding `Cc1ccc([C@@H]2C[C@H]3CN(Cc4cccc(Cl)c4)C(=O)[C@]34CCCN24)o1`, the “hERG current change (%, negative = inhibition) at 10uM” value is -34.3%.
Next, `COc1cc(N(C)C)c(NC(C)=O)cc1C(=O)O`: 23.6%; `O=C1N(c2cccc3ccccc23)C(c2ccccc2)N2CCCN12` (stereo not shown): -1.93%; `Cc1nc(S(=O)(=O)Cc2ccccc2)nc2c1CCC2`: 13.4%.
Next, `O=C(NCC(c1cccnc1)N1CCN(c2ccc(F)cc2)CC1)C1CCCCC1` (stereo not shown): -45.5%; `COc1ccc(OC)c(-c2nnc(-c3ccc(C)o3)o2)c1`: -7.99%; `Cc1ccc(C)c(S(=O)(=O)N2CCN(C(=O)Cn3c(C(F)(F)F)nc4ccccc43)CC2)c1`: -1.16%.
Consider `COc1cccc2cc(-c3ccccc3)oc12`, for which the “hERG current change (%, negative = inhibition) at 10uM” value worked out at 14.3%.
Then `COc1cccc(N2CCN(C(c3ccccn3)c3nnnn3C(C)(C)C)CC2)c1` (stereo not shown), with 1.38%; and `Cc1ccccc1NC(=O)Cn1nc(C(F)(F)F)cc1C1CC1`, with 8.48%; and `CCC(=O)c1cn(CC(=O)Nc2ccc(C)cc2C)c2ccccc12`, with 18.9%.
Then `O=C(COc1ccccc1)NNC(=O)c1cc2ccccc2o1`, with -9.75%; and `CCc1ccccc1NC(=S)Nc1cc(OC)c(NC(=O)C(C)C)cc1OC`, with 17.1%.
Then `COc1ccc(CN2CCN(S(=O)(=O)c3ccc(NC(C)=O)cc3)CC2)cc1OC.O=C(O)C(=O)O`, with -23.3%; and `COCCn1c(=O)c2c(nc3n2CCCN3Cc2ccccc2)n(C)c1=O`, with -17.2%; and `Cc1ccc(NC(=O)c2cc3c(CO)cnc(C)c3oc2=Nc2cccc(C(N)=O)c2)cc1`, with 11.2%.
For the compound `Cc1ccc(NC(=O)CC2C(=O)N(Cc3ccccc3)C(=S)N2NC(=O)c2ccccc2)c(C)c1` (stereo not shown), the “hERG current change (%, negative = inhibition) at 10uM” value was found to be 13.7%.
With `CCC1CCCCN1Cc1c(O)ccc2c(=O)c(-c3ccccc3)coc12` (stereo not shown), the “hERG current change (%, negative = inhibition) at 10uM” value is on record as -19.9%.
`COc1ccc(Cl)cc1S(=O)(=O)N(C)CC(=O)N1CCOCC1`: the “hERG current change (%, negative = inhibition) at 10uM” value was 25.5%.
For the compound `O=C(O)CNC(=O)CC12CC3CC(CC(C3)C1)C2`, the “hERG current change (%, negative = inhibition) at 10uM” value is recorded as 12.6%.
Consider `COC(=O)C[C@H]1c2cc(C(F)(F)F)ccc2S(=O)(=O)N1Cc1ccc(OC)cc1`, for which the “hERG current change (%, negative = inhibition) at 10uM” value is recorded as -25.3%.
Then `O=C(O)/C=C1\NC(=O)c2ccccc21`, with 17%; and `Cn1cccc1Cc1nnc(SCC(=O)NCc2ccc3c(c2)OCO3)n1CCc1ccccc1`, with -17.2%.
Then `CS(=O)(=O)N1CCC(C(=O)NCCN2CCN(Cc3ccccc3)CC2)CC1`, with 20.4%; and `Cc1ccc(Cl)c(OCC(=O)NCC(c2cccs2)N2CCOCC2)c1` (stereo not shown), with -12.4%; and `COc1ccccc1N1CCN(C(=O)C2C3C=CC4(CN(Cc5ccccc5Cl)C(=O)C24)O3)CC1` (stereo not shown), with -7%.
For `Cc1ccc(-c2nn3nnnc3c3ccccc23)cc1`, the “hERG current change (%, negative = inhibition) at 10uM” value came to 14.3%.
Next, `CC(C)S(=O)(=O)C1=NSC2=NC(=O)/C(=C\c3ccc(-c4ccccc4)o3)C(=N)N21`: 11.3%; `CCOc1ccc(-n2cnnn2)cc1S(=O)(=O)NCCc1ccc(OC)c(OC)c1`: -12.9%; `O=C(COC(=O)c1ccccc1OC(F)F)Nc1ccc2[nH]c(=O)[nH]c2c1`: 4.45%.
Next, `CN1CCN(CC(O)COc2ccccc2)CC1` (stereo not shown): -0.905%; `CCCn1c(N)c(N(CCOC)C(=O)c2cccc(Cl)c2)c(=O)[nH]c1=O`: 42.9%; `CCCCC1(Cc2ccc([N+](=O)[O-])cc2)C(=O)N(c2ccccc2)N(c2ccccc2)C1=O`: -5.55%.
Next, `CCCCN(C)C(=O)CS(=O)(=O)Cc1nc(-c2cccc(OC)c2)oc1C`: -18.6%.
Take `O=c1cc(-c2ccccc2)[nH]n1-c1nc2ccccc2s1`: the “hERG current change (%, negative = inhibition) at 10uM” value was determined as 14.2%.
Next, `O=C(NC1CCCCC1)C1CCCN1S(=O)(=O)c1ccc(Cl)cc1` (stereo not shown): 3.18%; `CC1CN(C(=O)CN2C(=O)NC3(CCCC3)C2=O)C(=Nc2cccc(S(=O)(=O)N(C)C)c2)S1` (stereo not shown): -32%.
`Cc1ccn2c(=O)nc(SCC(=O)NC3CCCC3)nc2c1`: the “hERG current change (%, negative = inhibition) at 10uM” value was -3.35%.
As to `Cc1c(C(=O)NCC2COc3ccccc3O2)oc2ccc(S(=O)(=O)N3CC(C)CC(C)C3)cc12` (stereo not shown), the “hERG current change (%, negative = inhibition) at 10uM” value turned out to be 12.4%.
`Cc1ccc(S(=O)(=O)NCC2CCC(C(=O)NCc3ccc4c(c3)OCO4)CC2)cc1` (stereo not shown): the “hERG current change (%, negative = inhibition) at 10uM” value is given as -0.473%.
Take `Cc1ccc(OCC(=O)O/N=C(\N)Cc2ccc(Cl)cc2)cc1`: the “hERG current change (%, negative = inhibition) at 10uM” value amounted to 10.9%.
Next, `Cc1cccc2sc(NC(=O)c3ccc(OCC4CCCO4)cc3)nc12` (stereo not shown): 9.85%; `COc1ccc(OC)c(/C=N/NC(=O)c2cc3c(OC)cc(OC)cc3[nH]2)c1`: 18.4%.
Next, `COc1ccc(Cl)cc1NS(=O)(=O)c1cccc(C(=O)NCC2(N(C)C)CCCCC2)c1`: -35.5%.
